The text below walks through data of article PMC12820563, “FoxP3 forms a head-to-head dimer in vivo and stabilizes its multimerization on adjacent microsatellites”.

This is one part of the list.

The target of this assay is T1, MBP-FoxP1dN (Mus musculus, UniProt P58462 326-579).
T1 sequence: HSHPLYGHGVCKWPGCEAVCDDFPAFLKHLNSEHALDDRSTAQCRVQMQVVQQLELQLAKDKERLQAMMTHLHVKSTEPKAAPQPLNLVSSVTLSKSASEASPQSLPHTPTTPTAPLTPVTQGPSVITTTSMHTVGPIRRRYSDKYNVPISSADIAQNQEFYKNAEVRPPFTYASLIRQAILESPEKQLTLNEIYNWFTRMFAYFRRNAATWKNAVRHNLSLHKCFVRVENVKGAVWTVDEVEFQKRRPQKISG
The assay is described as follows: PD-seq (MBP pull-down with sequencing); 20 mM Tris-HCl pH 7.5, 100 mM NaCl, 1.5 mM MgCl2, 0.4 uM protein, 0.1 uM dsDNA library, 30 min, room temperature, amylose pull-down; high values mean tight binding. To be noted: protein: recombinant; tags: His6-MBP; chain copies: 2; dsDNA, one strand shown. An outline of the steps: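 A fragment of mouse FoxP3 or FoxP1 without its N-terminus, carrying a His6-MBP tag and produced in E. coli, was combined at 0.4 µM with a 0.1 µM degenerate double-stranded DNA library filled in with Klenow. The mixture sat for 30 min at room temperature in Tris pH 7.5 buffer containing NaCl and MgCl2. Protein–DNA complexes were captured on amylose resin, washed three times, and the DNA was freed with proteinase K, barcoded by PCR and sequenced on Illumina. Binding is expressed as reads-per-million enrichment of pull-down over input, with replicates pooled.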
With “GATGATTGTTCTCCCAGCTGATGAATTACAGGCTTCGAGTAAACAAATTTTCCTAATCTTTCTGTTCAAGCGCCATCTAC”, the binding signal was 1.09 RPM ratio (pull-down/input).
Turning to “GATGATTGTTCTCCCAGCTGATGAATTCTCATGATCGAGTAAACAAATTTTCCTAATCTTTCTGTTCAAGCGCCATCTAC”, the binding signal was 0.956 RPM ratio (pull-down/input).
To “GATGATTGTTCTCCCAGCTGATGAATTAAATGTTTCGAGTAAACAAATTTTCCTAATCTTTCTGTTCAAGCGCCATCTAC” belongs 1.3 RPM ratio (pull-down/input); to “GATGATTGTTCTCCCAGCTGATGAATTACTGTTATCGAGTAAACAAATTTTCCTAATCTTTCTGTTCAAGCGCCATCTAC”, 1.66 RPM ratio (pull-down/input).
As for “GATGATTGTTCTCCCAGCTGATGAATTAAGGTTCTCGAGTAAACAAATTTTCCTAATCTTTCTGTTCAAGCGCCATCTAC”, the binding signal was 0.765 RPM ratio (pull-down/input).
The result for “GATGATTGTTCTCCCAGCTGATGAATTTCTTCTATCGAGTAAACAAATTTTCCTAATCTTTCTGTTCAAGCGCCATCTAC” reads 0.948 RPM ratio (pull-down/input).
Turning to “GATGATTGTTCTCCCAGCTGATGAATTATCGAGATCGAGTAAACAAATTTTCCTAATCTTTCTGTTCAAGCGCCATCTAC”, the binding signal was 0.904 RPM ratio (pull-down/input).
The result for “GATGATTGTTCTCCCAGCTGATGAATTGAGGCACTCGAGTAAACAAATTTTCCTAATCTTTCTGTTCAAGCGCCATCTAC” reads 1.04 RPM ratio (pull-down/input); that for “GATGATTGTTCTCCCAGCTGATGAATTTCATCCGTCGAGTAAACAAATTTTCCTAATCTTTCTGTTCAAGCGCCATCTAC”, 0.884 RPM ratio (pull-down/input).
On to “GATGATTGTTCTCCCAGCTGATGAATTAGTGTTCTCGAGTAAACAAATTTTCCTAATCTTTCTGTTCAAGCGCCATCTAC”, for which the binding signal is 0.976 RPM ratio (pull-down/input).
“GATGATTGTTCTCCCAGCTGATGAATTCTACTACTCGAGTAAACAAATTTTCCTAATCTTTCTGTTCAAGCGCCATCTAC”: the binding signal was 0.905 RPM ratio (pull-down/input).
As for “GATGATTGTTCTCCCAGCTGATGAATTCATACTGTCGAGTAAACAAATTTTCCTAATCTTTCTGTTCAAGCGCCATCTAC”, the binding signal is 0.925 RPM ratio (pull-down/input).
Regarding “GATGATTGTTCTCCCAGCTGATGAATTGAATTGTTCGAGTAAACAAATTTTCCTAATCTTTCTGTTCAAGCGCCATCTAC”, the binding signal was 0.984 RPM ratio (pull-down/input).
Take “GATGATTGTTCTCCCAGCTGATGAATTCGTCTGCTCGAGTAAACAAATTTTCCTAATCTTTCTGTTCAAGCGCCATCTAC”: the binding signal is 0.792 RPM ratio (pull-down/input).
For “GATGATTGTTCTCCCAGCTGATGAATTGAGTGCTTCGAGTAAACAAATTTTCCTAATCTTTCTGTTCAAGCGCCATCTAC”, the binding signal is 0.897 RPM ratio (pull-down/input).
Take “GATGATTGTTCTCCCAGCTGATGAATTTCTAGAGTCGAGTAAACAAATTTTCCTAATCTTTCTGTTCAAGCGCCATCTAC”: the binding signal was 0.778 RPM ratio (pull-down/input).
The result for “GATGATTGTTCTCCCAGCTGATGAATTATGATCTTCGAGTAAACAAATTTTCCTAATCTTTCTGTTCAAGCGCCATCTAC” reads 0.948 RPM ratio (pull-down/input); that for “GATGATTGTTCTCCCAGCTGATGAATTGGAGCGATCGAGTAAACAAATTTTCCTAATCTTTCTGTTCAAGCGCCATCTAC”, 0.898 RPM ratio (pull-down/input); that for “GATGATTGTTCTCCCAGCTGATGAATTCTTCGATTCGAGTAAACAAATTTTCCTAATCTTTCTGTTCAAGCGCCATCTAC”, 0.798 RPM ratio (pull-down/input).
On to “GATGATTGTTCTCCCAGCTGATGAATTGAATTAATCGAGTAAACAAATTTTCCTAATCTTTCTGTTCAAGCGCCATCTAC”, for which the binding signal was 0.98 RPM ratio (pull-down/input).
As to “GATGATTGTTCTCCCAGCTGATGAATTTAGTCTTTCGAGTAAACAAATTTTCCTAATCTTTCTGTTCAAGCGCCATCTAC”, the binding signal was 0.944 RPM ratio (pull-down/input).
For the sequence “GATGATTGTTCTCCCAGCTGATGAATTGCAGGCCTCGAGTAAACAAATTTTCCTAATCTTTCTGTTCAAGCGCCATCTAC”, the binding signal was 0.952 RPM ratio (pull-down/input).
To “GATGATTGTTCTCCCAGCTGATGAATTTGGTCGCTCGAGTAAACAAATTTTCCTAATCTTTCTGTTCAAGCGCCATCTAC” belongs 0.873 RPM ratio (pull-down/input); to “GATGATTGTTCTCCCAGCTGATGAATTTAGCCGATCGAGTAAACAAATTTTCCTAATCTTTCTGTTCAAGCGCCATCTAC”, 0.85 RPM ratio (pull-down/input).
As for “GATGATTGTTCTCCCAGCTGATGAATTAGTTACCTCGAGTAAACAAATTTTCCTAATCTTTCTGTTCAAGCGCCATCTAC”, the binding signal is 0.984 RPM ratio (pull-down/input).
Regarding “GATGATTGTTCTCCCAGCTGATGAATTAAGCCAGTCGAGTAAACAAATTTTCCTAATCTTTCTGTTCAAGCGCCATCTAC”, the binding signal was 0.849 RPM ratio (pull-down/input).
Take “GATGATTGTTCTCCCAGCTGATGAATTAGACTGCTCGAGTAAACAAATTTTCCTAATCTTTCTGTTCAAGCGCCATCTAC”: the binding signal was 0.812 RPM ratio (pull-down/input).
With “GATGATTGTTCTCCCAGCTGATGAATTGGACGGGTCGAGTAAACAAATTTTCCTAATCTTTCTGTTCAAGCGCCATCTAC”, the binding signal was 0.71 RPM ratio (pull-down/input).
The result for “GATGATTGTTCTCCCAGCTGATGAATTCTATGTATCGAGTAAACAAATTTTCCTAATCTTTCTGTTCAAGCGCCATCTAC” reads 1.27 RPM ratio (pull-down/input); that for “GATGATTGTTCTCCCAGCTGATGAATTCACTAAATCGAGTAAACAAATTTTCCTAATCTTTCTGTTCAAGCGCCATCTAC”, 0.989 RPM ratio (pull-down/input); that for “GATGATTGTTCTCCCAGCTGATGAATTTAGTACTTCGAGTAAACAAATTTTCCTAATCTTTCTGTTCAAGCGCCATCTAC”, 1.04 RPM ratio (pull-down/input).
